Structures are written as SMILES. The whole screen tested about 50,000 compounds, of which about 800 (1.6%) showed an effect of 50% or more. This is one part of the list.

This experiment deals with Bcl-2-like protein 10 (Homo sapiens) (UniProt Q9HD36). The experiment can be described thus: TR3 peptide-Bcl-B binding displacers, biochemical primary FP assay, phenotype converters (AID 1240).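 Note: 0% = Bcl-B with tracer peptide and DMSO and 100% = tracer peptide lacking Bcl-B.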 Particulars: GST-Bcl-B / FITC-TR3 peptide fluorescence polarization; stronger effect = higher value; compound at 3.75 mg/L.
UniProt Q9HD36, sequence (Q9HD36 whole entry, looked up): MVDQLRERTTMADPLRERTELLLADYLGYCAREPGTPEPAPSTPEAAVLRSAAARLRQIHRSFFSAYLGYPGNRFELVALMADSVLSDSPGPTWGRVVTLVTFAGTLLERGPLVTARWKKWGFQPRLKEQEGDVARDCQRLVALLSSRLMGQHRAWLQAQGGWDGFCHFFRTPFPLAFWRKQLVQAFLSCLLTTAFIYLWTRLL
Take `COC(=O)C1=NN(C(=O)c2ccccc2)C(O)(c2ccc(OC)cc2)C1` (centres undefined): the displacement is -16.1%.

On to `CCOc1ccc(N2C(=O)c3cccc4cccc(c34)C2=O)cc1`, for which the displacement is -9.7%.

For the compound `CCOC(=O)C1C(=O)CC(O)(c2ccc(Cl)cc2)CC1C=C(Cl)Cl` (centres undefined), the displacement is 14.9%.

For the compound `CC1CC(N(C(=O)c2ccco2)c2ccccc2)c2ccccc2N1` (centres undefined), the displacement was 10.5%.

Regarding `CC(C)(C)CC(C)(C)NS(=O)(=O)c1ccc([N+](=O)[O-])cc1`, the displacement was -1.3%.

Take `COc1ccc(N(CC(=O)Nc2ccccc2Cl)S(C)(=O)=O)c(OC)c1`: the displacement was -11.6%.

As to `S=c1n(CN2CCOCC2)nc(-c2ccccc2Cl)n1-c1ccccc1`, the displacement was 2.8%.

Take `O=C1C(=O)N(c2cccnc2)C(c2ccc(F)cc2)/C1=C(\O)c1ccc(Cl)cc1` (centres undefined): the displacement was -19.7%.

Turning to `O=C(Nc1ccc2c3c(cccc13)CC2)c1ccccc1[N+](=O)[O-]`, the displacement was -2.5%.

As for `N#Cc1cc2c(nc1SCC(=O)Nc1nccs1)CCCC2`, the displacement is 3.8%.

Take `COc1cc(OC)c(/C=C2\C(=O)NC(=O)N(c3ccccc3)C2=O)c(OC)c1`: the displacement was -3.3%.

`O=C(Cc1ccc(F)cc1)Nc1cccc2ccccc12`: the displacement is -2.3%.

Consider `Oc1ccc(Br)cc1CN1CCN(Cc2ccncc2)CC1`, for which the displacement is 0.8%.

With `CCOC(=O)C(CCC(OC(=O)c1ccccc1)(C(=O)OCC)C(=O)OCC)(OC(=O)c1ccccc1)C(=O)OCC`, the displacement came out at 3.7%.

Regarding `Cc1ccc(O)c(N2C(=O)c3ccc(C(=O)c4cccc([N+](=O)[O-])c4)cc3C2=O)c1`, the displacement was -26.4%.

As to `COc1ccc(-c2cc(C(=O)NC3CCCCC3)c3ccccc3n2)c(OC)c1`, the displacement is -0.1%.

As to `O=C(c1ccc(F)cc1)N1CCN=C1c1ccccc1`, the displacement is -19%.

For the compound `O=C(c1ccc(N2CCN(C(=O)c3cccs3)CC2)cc1)c1cccc(F)c1`, the displacement was -4%.

Take `CC(=O)NC(=O)c1ccccc1OCC(=O)c1ccc(Br)cc1`: the displacement is 1.8%.

For `O=C(/C=C/c1ccccc1)NC(=S)Nc1ccc(Cl)cc1Cl`, the displacement turned out to be 0.3%.

As for `O=C1C(=C(c2ccccc2)c2ccccc2)C(=O)c2ccccc21`, the displacement is -5.3%.

For `CCOC(=O)c1c(NC(=S)Nc2ccc(OC)cc2)sc2c1CC(C)(C)OC2`, the displacement is -4.4%.

In the case of `CS(=O)(=O)N(CC(=O)O)c1cccc(C(F)(F)F)c1`, the displacement was -0.2%.

`CCCCn1c(O)c(C2=c3cc(Br)ccc3=NC2=O)sc1=S`: the displacement is -1%.

Consider `Cc1cc(C)c(NC(=O)c2ccc(C(=O)Nc3c(C)cc(C)cc3C)cc2)c(C)c1`, for which the displacement is 13.1%.

Turning to `COC(=O)c1c(N)sc(C)c1-c1cc(C)ccc1C`, the displacement is -0.7%.

Take `COc1ccc(NC(=O)Cn2nc(C)c([N+](=O)[O-])c2C)cc1OC`: the displacement was -2.3%.

Consider `O=C(O)c1ccc(Cl)c(S(=O)(=O)N2CCCC2)c1`, for which the displacement turned out to be 5.8%.

Consider `CC(C)=C1C2C=CC1C1C(=O)N(c3ccc(Br)cc3[N+](=O)[O-])C(=O)C21` (centres undefined), for which the displacement stood at 14.9%.

Turning to `CC(c1ccccc1)C1CC(=O)N(c2ccc([N+](=O)[O-])cc2)C1=O` (centres undefined), the displacement came out at 1.7%.

As to `O=C1c2ccccc2C(=O)N1CCCCN(C(=O)c1ccc(Br)cc1)c1ccc(F)cc1F`, the displacement amounted to 1.2%.

`CC(OCc1ccccc1)C(NC(=O)OC(C)(C)C)C(=O)Nc1nccs1` (centres undefined): the displacement is 2.2%.

Turning to `C/C(=N\N1CCN(c2ccccc2)CC1)c1ccco1`, the displacement is 2.5%.

As for `CN(C(=O)COc1ccc(F)cc1)C1CCS(=O)(=O)C1` (centres undefined), the displacement was found to be 9.1%.

On to `O=C(c1ccc(Cl)cc1)N1N=C(c2ccc(F)cc2)CC1(O)C(F)(F)F` (centres undefined), for which the displacement came to 0.8%.

On to `C=CCN1C(=O)/C(=C/c2ccc(I)o2)SC1=S`, for which the displacement stood at 13.6%.

As to `O=C(c1cc([N+](=O)[O-])ccc1Cl)N1CCN(C(c2ccccc2)c2ccccc2)CC1`, the displacement is 5.2%.

Turning to `CCn1c2ccc(C(C)=O)cc2c2cc(C(C)=O)ccc21`, the displacement turned out to be 12.5%.

As for `O=C(O)C1CC(O)CN1C(=O)Oc1ccccc1` (centres undefined), the displacement was determined as 1.1%.

`O=C(NN1C(=O)/C(=C/c2cccc(O)c2)SC1=S)c1ccccc1O`: the displacement amounted to 16.2%.

Regarding `COc1ccc(NC(=O)c2ccccc2N)cc1`, the displacement is -9.6%.

For `CC(C)(C)OC(=O)CC(O)(c1ccccc1)C(F)(F)F` (centres undefined), the displacement is 0.7%.

`COc1ccc(CCNC(=O)CCc2ccccc2O)cc1OC`: the displacement is -6.6%.

In the case of `C=CCn1cc(C)c(=O)n(CC(C)C)c1=O`, the displacement was 8%.

As for `Cc1ccc(OCCn2cc(C=C3C(=O)NC(=O)NC3=O)c3ccccc32)cc1C`, the displacement came to 79.3%.

For `COc1ccc(/C=C/C(=O)Nc2nc(-c3ccccc3)cs2)cc1S(=O)(=O)N1CCCCC1`, the displacement was -0.4%.

Consider `COC(=O)c1cc(NC(=O)c2cccc3c(Br)cccc23)cc(C(=O)OC)c1`, for which the displacement amounted to 13.9%.

Take `C=CCn1c(SC)nc(O)c(Cc2ccccc2)c1=O`: the displacement came to 1.7%.

Consider `COc1ccc(C(C)=O)cc1CSc1cc(C)c2ccccc2n1`, for which the displacement came out at 0.4%.

For `O=C(/C=C/c1ccccc1)NC(=S)Nc1cc(Cl)ccc1Cl`, the displacement is 9.4%.

On to `O=C(O)c1ccccc1C(=O)c1cc([N+](=O)[O-])ccc1Cl`, for which the displacement is -1.8%.

As to `COc1cc(OC)c(OC)cc1CN1CCN(Cc2cccc(Br)c2)CC1`, the displacement was -0.3%.

With `Cc1[nH]nc2c1C(c1cc([N+](=O)[O-])ccc1O)C(C#N)=C(N)O2` (centres undefined), the displacement is -3.3%.

For the compound `O=C(COc1ccccc1Cl)Nc1c[nH]c(=O)[nH]c1=O`, the displacement was determined as 9.6%.

Consider `CN1CCN(C(=O)c2cc(-c3ccc(Cl)c(Cl)c3)nc3ccccc23)CC1`, for which the displacement was -5.5%.

`COc1ccc(C(=O)CC(c2ccccc2)S(=O)(=O)c2ccccc2)cc1` (centres undefined): the displacement was -0.9%.

On to `O=C(Nc1cccc2ccccc12)C(=O)NC1CCCCC1`, for which the displacement was 8.2%.

In the case of `O=C(N=Nc1c(O)n(CN2CCCC2)c2ccccc12)c1ccncc1`, the displacement is -6.2%.

For `O=C1/C(=C/c2cccc(Br)c2)SC(=S)N1Cc1ccco1`, the displacement is 3.6%.

With `CC(=O)Nc1ccccc1NC(=O)COc1ccc(Cl)cc1C`, the displacement is -4.5%.

With `CCOc1ccc(N(CC(=O)NCC2CCCO2)S(C)(=O)=O)cc1` (centres undefined), the displacement amounted to 13.1%.

As for `COc1cccc(OCCNC(=O)Nc2cc(F)c(F)cc2Cl)c1`, the displacement was -20.1%.

With `Cc1nc2cc(N=Cc3ccc(N(C)C)cc3)ccc2n1Cc1ccccc1`, the displacement is 6.3%.

On to `O=C(COc1ccccc1[N+](=O)[O-])N=Nc1c(O)[nH]c2ccc(Br)cc12`, for which the displacement was 7.6%.

Turning to `COc1ccc(CCN=Cc2c(O)[nH]c(=O)[nH]c2=O)cc1`, the displacement was -2.3%.

In the case of `CC1CN(C)C(C)CC1OC(=O)c1ccccc1Cl` (centres undefined), the displacement is 7%.

For the compound `O=C(N=c1scc(-c2ccccc2)n1-c1ccccc1)c1ccco1`, the displacement was -6.2%.

As to `COc1cccc(-c2csc(/C(C#N)=C/c3sccc3C)n2)c1`, the displacement is -8.9%.

On to `O=C1NC(=O)N(c2ccc(Br)cc2)C(=O)/C1=C/c1ccc(-c2cccc([N+](=O)[O-])c2)o1`, for which the displacement stood at 138%.

Consider `COC(=O)c1c(NC(=O)Cc2ccccc2)sc(C)c1C`, for which the displacement is -14.8%.

In the case of `N#Cc1c(NC(=O)c2ccc(S(=O)(=O)c3ccccc3)cc2)sc2c1CCCC2`, the displacement was found to be 83.9%.

Consider `O=C(CCCN1C(=O)/C(=C\c2cccs2)SC1=S)Nc1cccnc1`, for which the displacement is -0.9%.

With `COc1ccc(-c2cc(-c3cc(Cl)ccc3O)[nH]n2)cc1OC`, the displacement came out at 9.9%.

Turning to `O=C1NC(=Nc2cccc(Cl)c2Cl)S/C1=C\c1cccc([N+](=O)[O-])c1`, the displacement is -3.6%.

As for `COc1ccc(OC)c(N2C(=O)c3ccc(OC)c(OC)c3C2=O)c1`, the displacement is -13.4%.

Take `CC(C)(C)c1ccc(-c2cc(-c3cc(Cl)ccc3O)[nH]n2)cc1`: the displacement came out at 0.6%.

As to `N=c1sc(Cc2ccccc2Cl)cn1CC(=O)c1ccccc1`, the displacement is 9.5%.

Take `O=C(CCN1C(=O)c2ccccc2C1=O)Nc1ccc(I)cc1`: the displacement amounted to 2.3%.

For the compound `COc1ccc(NC(=O)C(=O)NC2CC2)cc1`, the displacement was determined as 6.6%.

As to `O=C1C2=C(NC(=S)NC2c2ccc([N+](=O)[O-])cc2)c2ccccc21` (centres undefined), the displacement is -6.2%.

For `COc1ccc(/C=N/Nc2nc(N3CCCC3)nc(N3CCCC3)n2)c(OC)c1`, the displacement is -0.4%.

For the compound `COc1ccccc1/C=C1/C(C)=C(C#N)c2nc(N)c(C#N)c(C)c21`, the displacement is -0.7%.

Regarding `COc1cc(N2C(=O)NC(=O)/C(=C\c3cc(I)c(O)c(OC)c3)C2=O)c(OC)cc1Cl`, the displacement is 1.6%.

For the compound `COc1cc(/C=C2/N=C(c3ccccc3)OC2=O)cc(Cl)c1OC(C)=O`, the displacement worked out at 1.8%.

In the case of `C=COCCNC(=O)C(=O)Nc1ccccc1OCC`, the displacement came to 0.5%.

With `Cc1ccc(CCCCCCCCCCCC(=O)N2CCOCC2)cc1`, the displacement was -3.7%.

On to `CN(C)C=NC(=O)/C(C#N)=C1\CCc2ccccc2N1`, for which the displacement turned out to be 19.9%.

Regarding `Cc1cccc(C(C)C)c1NC(=O)c1cc2ccccc2oc1=O`, the displacement was found to be 12.3%.

For `CC(=O)N(c1ccccc1)C1CC(C)N(C(=O)c2cccs2)c2ccccc21` (centres undefined), the displacement is -5.4%.

For the compound `CN(C)CCCNC(=O)c1ccccc1Cl`, the displacement is 11.1%.

In the case of `CCCCOc1ccc(S(=O)(=O)n2cnc3ccccc32)cc1`, the displacement came out at 16.1%.

As to `CCCCOc1ccc(C(=O)Nc2cccc(OC)c2)cc1`, the displacement came out at 2.4%.

As to `COc1ccc(/C=N/NC(=O)c2cc(-c3ccc4ccccc4c3)n[nH]2)cc1O`, the displacement was -10.8%.

With `CC(C)COc1ccc(C(=O)Nc2ccc(-c3nc4ccccc4o3)cc2)cc1`, the displacement worked out at 10%.

Consider `COc1ccc(NC(=O)COC(=O)C(CCSC)NC(=O)c2ccccc2)cc1` (centres undefined), for which the displacement turned out to be 3.9%.

For the compound `CCCCOc1ccc(Cc2c(O)nc(SC)[nH]c2=O)cc1`, the displacement is 9.1%.

For the compound `O=C(O)c1ccc(NC2=C(N3CCCCC3)C(=O)c3ccccc3C2=O)cc1`, the displacement amounted to 5.7%.

On to `COc1cc(/C=C2\SC(=S)N(C)C2=O)ccc1OC(=O)c1sc2cc(C)ccc2c1Cl`, for which the displacement is 5.7%.

As for `CCOC(=O)/C(=C\c1ccc(-c2ccc(S(N)(=O)=O)cc2)o1)C(C)=O`, the displacement amounted to 9.6%.

As for `O=C1CC(c2ccc(Cl)cc2)CC2=C1C(c1ccccc1F)Nc1ccccc1N2` (centres undefined), the displacement was -8.9%.

On to `CC(=O)Nc1ccc(-c2ccc(NC(C)=O)c(Cl)c2)cc1Cl`, for which the displacement amounted to 3.3%.

For `COc1ccc([N+](=O)[O-])cc1NC1CCCC(C)C1` (centres undefined), the displacement came out at 8.3%.

In the case of `CCOc1ccc(/C=C2/SC(=S)NC2=O)c(OCC)c1`, the displacement worked out at 114%.

In the case of `Cc1ccc2ncnc(N(CC(C)C)CC(C)C)c2c1`, the displacement stood at 6.5%.

As for `COc1ccc(C(=O)N2CCN(C3CCCC(C)C3)CC2)cc1` (centres undefined), the displacement was -19.4%.

For `C/C(CC(=O)NCCc1ccccc1)=N\NC(=O)C12CC3CC(CC(C3)C1)C2`, the displacement was -36.9%.

Regarding `CCOc1ccc2oc(-c3ccccc3)c(C(=O)N3CCN(C)CC3)c2c1`, the displacement came out at 12.2%.

Regarding `CCCCCC/C(=N\NC(=O)c1ccncc1)c1ccccc1`, the displacement was -0.9%.

In the case of `CC(C)c1ccc(N2C(=O)NC(=O)/C(=C/c3ccccc3O)C2=O)cc1`, the displacement amounted to 0.6%.

Values taken from PubChem BioAssay AID1240 (Sanford-Burnham Center for Chemical Genomics, 2008).
